# Test results: PMC4049591
# By UniProt entry, the sequences of proteins in these tests, tags left out. Where a name states a change or a piece, a line headed by the entry shows the natural chain unless it says otherwise. Chains listed by the source or under a name are the forms on record and can include a tag or linker. Residues count along the entry.
# Full length human sonic hedgehog with HA tag (SHH-HA), glycosylated (Q15465, residues 24-462): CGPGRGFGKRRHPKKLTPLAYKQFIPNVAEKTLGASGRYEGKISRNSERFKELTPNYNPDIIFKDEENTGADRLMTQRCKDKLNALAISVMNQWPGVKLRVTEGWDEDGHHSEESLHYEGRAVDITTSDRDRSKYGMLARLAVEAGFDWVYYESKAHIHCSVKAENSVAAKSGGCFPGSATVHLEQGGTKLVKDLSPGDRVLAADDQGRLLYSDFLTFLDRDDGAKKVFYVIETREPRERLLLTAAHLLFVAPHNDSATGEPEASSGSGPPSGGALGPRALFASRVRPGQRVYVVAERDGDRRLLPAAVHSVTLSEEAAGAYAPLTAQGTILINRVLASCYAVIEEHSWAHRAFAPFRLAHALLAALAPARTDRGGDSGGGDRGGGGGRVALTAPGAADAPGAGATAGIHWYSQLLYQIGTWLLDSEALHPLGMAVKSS
# Non-glycosylated human sonic hedgehog mutant N278A with HA tag (N278A-HA) (Q15465, form named): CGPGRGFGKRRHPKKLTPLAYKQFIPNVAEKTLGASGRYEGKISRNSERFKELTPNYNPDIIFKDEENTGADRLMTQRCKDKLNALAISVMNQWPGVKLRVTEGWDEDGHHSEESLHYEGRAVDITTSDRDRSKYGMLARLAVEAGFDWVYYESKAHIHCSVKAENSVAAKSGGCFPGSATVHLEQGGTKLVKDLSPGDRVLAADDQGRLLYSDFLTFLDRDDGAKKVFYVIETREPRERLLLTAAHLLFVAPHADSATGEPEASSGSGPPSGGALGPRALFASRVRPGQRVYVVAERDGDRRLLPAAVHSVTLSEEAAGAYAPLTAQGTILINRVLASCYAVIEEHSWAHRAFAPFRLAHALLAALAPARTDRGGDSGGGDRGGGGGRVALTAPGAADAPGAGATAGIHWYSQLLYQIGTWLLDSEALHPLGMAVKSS
# No constants are given. Whether binding was seen depends on the method and setting. In cells and extracts the contact can be indirect. Some results given as binding are weak or reduced against the parent protein; the word gives no strength. For some assays here: Tags and fused reporters may be left off the sequences shown.
# T1: Myc-tagged EDEM2 active site mutant D258N (human) (UniProt Q9BV94)
# T1 sequence: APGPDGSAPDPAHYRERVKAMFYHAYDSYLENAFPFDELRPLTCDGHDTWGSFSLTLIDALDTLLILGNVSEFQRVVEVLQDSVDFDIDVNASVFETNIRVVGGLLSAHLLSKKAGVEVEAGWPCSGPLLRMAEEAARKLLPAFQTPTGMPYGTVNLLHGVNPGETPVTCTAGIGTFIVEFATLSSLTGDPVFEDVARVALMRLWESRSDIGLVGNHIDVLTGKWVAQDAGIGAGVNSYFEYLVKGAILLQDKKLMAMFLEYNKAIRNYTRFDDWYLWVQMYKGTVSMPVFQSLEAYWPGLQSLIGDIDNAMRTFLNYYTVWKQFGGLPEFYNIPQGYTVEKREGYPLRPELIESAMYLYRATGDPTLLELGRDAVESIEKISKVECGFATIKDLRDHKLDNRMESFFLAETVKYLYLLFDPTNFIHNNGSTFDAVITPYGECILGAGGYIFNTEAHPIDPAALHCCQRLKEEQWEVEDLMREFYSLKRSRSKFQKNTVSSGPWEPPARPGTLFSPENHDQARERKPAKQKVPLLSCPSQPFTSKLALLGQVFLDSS
# T2: Myc-tagged EDEM3 active site mutant D293N (human) (UniProt Q9BZQ6)
# T2 sequence: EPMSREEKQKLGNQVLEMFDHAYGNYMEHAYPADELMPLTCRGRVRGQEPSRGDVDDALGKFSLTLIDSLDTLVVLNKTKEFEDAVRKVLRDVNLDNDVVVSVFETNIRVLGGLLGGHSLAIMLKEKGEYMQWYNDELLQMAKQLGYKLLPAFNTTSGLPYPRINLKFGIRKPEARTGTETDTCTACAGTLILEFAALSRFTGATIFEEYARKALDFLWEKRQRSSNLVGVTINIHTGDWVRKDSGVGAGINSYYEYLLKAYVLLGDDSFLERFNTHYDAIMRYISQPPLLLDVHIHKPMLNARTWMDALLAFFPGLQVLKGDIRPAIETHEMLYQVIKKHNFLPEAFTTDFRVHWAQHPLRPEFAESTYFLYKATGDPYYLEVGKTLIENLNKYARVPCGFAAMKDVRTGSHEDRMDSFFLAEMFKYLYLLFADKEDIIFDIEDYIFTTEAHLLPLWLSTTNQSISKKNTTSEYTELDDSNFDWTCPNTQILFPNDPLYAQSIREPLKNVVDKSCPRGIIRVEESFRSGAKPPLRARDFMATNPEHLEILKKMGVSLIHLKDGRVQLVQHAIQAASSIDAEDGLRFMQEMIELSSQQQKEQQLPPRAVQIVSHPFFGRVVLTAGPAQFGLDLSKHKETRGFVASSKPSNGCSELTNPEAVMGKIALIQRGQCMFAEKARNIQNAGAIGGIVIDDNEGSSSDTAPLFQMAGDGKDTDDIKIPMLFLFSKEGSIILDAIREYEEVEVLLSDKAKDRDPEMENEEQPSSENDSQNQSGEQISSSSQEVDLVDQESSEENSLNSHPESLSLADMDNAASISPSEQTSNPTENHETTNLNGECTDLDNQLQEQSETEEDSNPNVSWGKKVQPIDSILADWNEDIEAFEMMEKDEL
# T3: Myc-tagged wild type EDEM1 (human) (UniProt Q92611)
# T3 sequence: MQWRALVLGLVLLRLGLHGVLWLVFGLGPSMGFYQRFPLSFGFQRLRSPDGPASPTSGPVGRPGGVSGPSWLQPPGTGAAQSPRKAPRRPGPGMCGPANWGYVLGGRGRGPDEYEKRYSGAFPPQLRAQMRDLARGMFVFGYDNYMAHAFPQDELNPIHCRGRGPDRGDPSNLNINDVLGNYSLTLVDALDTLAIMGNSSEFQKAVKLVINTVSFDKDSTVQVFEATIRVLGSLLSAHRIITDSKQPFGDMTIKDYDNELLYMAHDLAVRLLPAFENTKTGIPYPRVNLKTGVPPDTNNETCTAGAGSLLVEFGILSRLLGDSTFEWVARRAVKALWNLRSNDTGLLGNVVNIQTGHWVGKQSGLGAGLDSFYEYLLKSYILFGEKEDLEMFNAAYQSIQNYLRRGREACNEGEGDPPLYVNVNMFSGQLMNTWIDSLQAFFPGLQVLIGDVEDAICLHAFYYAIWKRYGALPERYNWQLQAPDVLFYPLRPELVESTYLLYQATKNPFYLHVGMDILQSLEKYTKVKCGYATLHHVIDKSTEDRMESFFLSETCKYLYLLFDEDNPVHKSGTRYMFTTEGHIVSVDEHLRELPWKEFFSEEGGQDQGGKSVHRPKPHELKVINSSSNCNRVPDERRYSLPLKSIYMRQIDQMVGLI
# B1: Calnexin (protein, UniProt P27824 21-592)
# chain: HDGHDDDVIDIEDDLDDVIEEVEDSKPDTTAPPSSPKVTYKAPVPTGEVYFADSFDRGTLSGWILSKAKKDDTDDEIAKYDGKWEVEEMKESKLPGDKGLVLMSRAKHHAISAKLNKPFLFDTKPLIVQYEVNFQNGIECGGAYVKLLSKTPELNLDQFHDKTPYTIMFGPDKCGEDYKLHFIFRHKNPKTGIYEEKHAKRPDADLKTYFTDKKTHLYTLILNPDNSFEILVDQSVVNSGNLLNDMTPPVNPSREIEDPEDRKPEDWDERPKIPDPEAVKPDDWDEDAPAKIPDEEATKPEGWLDDEPEYVPDPDAEKPEDWDEDMDGEWEAPQIANPRCESAPGCGVWQRPVIDNPNYKGKWKPPMIDNPSYQGIWKPRKIPNPDFFEDLEPFRMTPFSAIGLELWSMTSDIFFDNFIICADRRIVDDWANDGWGLKKAADGAAEPGVVGQMIEAAEERPWLWVVYILTVALPVFLVILFCCSGKKQTSGMEYKKTDAPQPDVKEEEEEKEEEKDKGDEEEEGEEKLEEKQKSDAEEDGGTVSQEEEDRKPKAEEDEILNRSPRNRKPRRE
# Experiments:
# [1] = target: T1, Myc-tagged EDEM2 active site mutant D258N (human); assay: co-IP; 293T cells transfected with Myc-tagged EDEMs (10% of the DNA normally used); lysed in buffer with 1% Triton; immunoprecipitated with Myc antibodies; blotted for endogenous SEL1L, HRD1, Bip, calnexin and ERp57
# [2] = target: T2, Myc-tagged EDEM3 active site mutant D293N (human); assay: as above
# [3] = target: T3, Myc-tagged wild type EDEM1 (human); assay: as above
# [4] = target: Full length human sonic hedgehog with HA tag (SHH-HA), glycosylated (human) (UniProt Q15465); assay: co-IP; 293T cells stably expressing SHH-HA or N278A-HA, untreated or treated with castanospermine (CST, 0.2 mg/ml, 90 min); lysed in buffer with 1% digitonin; immunoprecipitated with HA antibodies; blotted for endogenous calnexin, calreticulin and ERp57
# [5] = target: Non-glycosylated human sonic hedgehog mutant N278A with HA tag (N278A-HA) (human) (UniProt Q15465); assay: as above
binder,measurement,setting,value
B1,binding,[1],binds
same,binding,[2],binds
same,binding,[3],binds
same,binding,[4],binds
same,binding,[5],no binding
